Source: the supplement of paper PMC11417369
± gives the standard deviation of the averaged measurements. The list shows a part of the results.

system: PfAP2-EXP AP2 domain (GST-tagged); experiment: gcPBM binding intensity (ln(normalized median fluorescence intensity)); higher = stronger DNA binding
Method in brief: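 Alexa488 anti-GST antibody, scanned at 488 nm, detected GST-tagged P. falciparum DNA-binding domains that had been expressed in E. coli and incubated for 1 h on an Agilent 4 × 180k array. The array carried primer-extended double-stranded 36-bp intergenic genomic probes and negative controls. Binding intensity is the highest Masliner-normalised natural-log median intensity across replicate spots of either orientation of each probe.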

Row | Sequence | gcPBM binding intensity (ln)
1 | ATAATATAAATAATTATACACACTTAATATATATAT [CACACA_site2782] | 9.27 ± 0.071
2 | GTATGTATGTATGTATGTACGTATTTATTTATTTAA [XGTACX_site726] | 9.26 ± 0.099
3 | AAAAATGGTGTTAACACACACATATAAATAAATATA [CACACA_site6412] | 8.44 ± 0.35
4 | AACATAAGTAATATTTGTACATATATAATAATATAT [XGTACX_site5123] | 8.31 ± 0.35
5 | TAAATGTGAAATTTTATATTTTATATAATATACAAT [CACACA_negctrl_site76] | 8.07 ± 0.21
6 | AAGGATCACCCACAAACACACATATATATATATATA [CACACA_site559] | 10.4 ± 0.16
7 | CTCTTATACATATTCCTGCACTTATTTTTAAAAACA [GTGCAC_site9620] | 9.12 ± 0.3
8 | ATCATATTTTTATGTGTGCACTTTTTTTTTTTTTTT [GTGCAC_site9555] | 9.02 ± 0.099
9 | AGAGAGAAAGCTATAACATGCAACAATTTTTAGAAA [TGCATGCA_site95] | 8.69 ± 0.37
10 | TCAGAGTGAAGTTATACACACATGGTTTTTTTTTTT [CACACA_site2116] | 8.18 ± 0.66
11 | AGGAGGATATTACACAGTACCCAGTAACTCTACGGA [XGTACX_site1998] | 8.41 ± 0.37
12 | AAGTATGCGTTATATACACACATACATTTATATATC [CACACA_site6207] | 8.47 ± 0.35
13 | TTTTTTTGATAAAAGGTGCTACAAGATGAATACATA | 8.55 ± 0.26
14 | TTTTTTTTTTTAAATACATGCATGTCCTATTTAAAT [TGCATGCA_site494] | 9.14 ± 0.32
15 | ATAAATAAAAAAAAAAAAAAAAAAAAAAAAAAAATA [CACACA_negctrl_site1064] | 7.86 ± 0.61
16 | GTTGTATAAAATAATACATGCATGTCCTACATATAT [TGCATGCA_site162] | 9.43 ± 0.27
17 | GTAATATATTTTTATGGTACACGAACTAGCCAAAAA [XGTACX_site6307] | 8.76 ± 0.38
18 | AGTAATAACTATATATGTACATATATATATTATTAG [XGTACX_site1113] | 8.36 ± 0.3
19 | CCGCATTTTACAGACACACACAATTTATATTACGGT [CACACA_site6974] | 8.76 ± 0.5
20 | TAATATATTTATAAGTGTACACATTATATAAATCCC [XGTACX_site8875] | 8.85 ± 0.32
21 | AAAAGTATAATAAATTGTACTAACAAATATTTATGT [XGTACX_site7721] | 8.41 ± 0.31
22 | AAAAAAAAAAAAAAAAAAAAATATATATATATATAT [GTGCAC_negctrl_site426] | 10.1 ± 0.3
23 | AAAGATGAATTTTTTACACACACCATTTTATAATAT [CACACA_site3676] | 8.66 ± 0.33
24 | TAAAATTTTGTTTGTTGTACTTATTTTCGTGTCAAC [XGTACX_site8277] | 8.79 ± 0.38
25 | TACTTATCGTTAAATTGTACTAAAAAATATTTTTCT [XGTACX_site4665] | 8.53 ± 0.3
